Test results reported in PubChem BioAssay AID588855 (National Center for Advancing Translational Sciences (NCATS), 2011).
About 5,000 (1.2%) of roughly 410,000 compounds were called active. Inconclusive means that the source gave no clear call. Such entries were picked first, then a sample of the others. Calls come from the whole dose curve; as a rule, active = well fitted inhibition curve with a large enough effect; inconclusive = small, poorly fitted or top-dose-only effect; inactive = no such curve, though single readings can be large or run the other way. A potency beside an inconclusive call is a rough fit, not a confirmed value.

Assay: qHTS for Inhibitors of TGF-b; note: nearly all actives have a fitted effect of over 65% in size
Conditions: HepG2 CAGA-GFP TGF-b/SMAD3 reporter, GFP fluorescence, 18 h, TGF-beta stimulated, 500 pg/mL final; series mostly up to 46.1 µM
In short: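 Inhibition was scored as loss of TGF-beta-induced (500 pg/mL final, 18 hours, 37 degrees C) GFP in HEPG2 cells carrying a CAGA-GFP reporter, in DMEM with 1% FBS. Well GFP was summed per cell; Activity was normalised to unstimulated and stimulated DMSO wells, then concentration-response fitting.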
Potency is the fitted concentration of half-maximal effect; tags give direction and shape of the fitted curve.

SMILES | Potency
CCC1CN(C(=O)Nc2cccc3c2CCCC3)c2ccccc2O1 (configuration not stated) | inconclusive: 12.6 µM [inhibitor, single point]
Cc1[nH]nc(-c2ccc(O)c(C)c2O)c1-c1cnn(-c2ccccc2)c1 | active: 7.08 µM
c1ccc(-c2csc(Nc3cccnc3)n2)nc1 | inactive
O=C(C1CCN(CCCc2ccccc2)CC1)N(CCc1ccccc1)Cc1ccccc1 | inconclusive: 12.6 µM [inhibitor, partial curve, poor fit]
CCn1c(CCNC(=O)c2ccc(OC)cc2)nnc1SCc1ccc(Cl)cc1Cl | inconclusive: 35.5 µM [inhibitor, single point]
Cc1ccc(S(=O)(=O)c2c(C)nn(C(C)(C)C)c2OC(=O)c2cccs2)cc1 | inconclusive: 35.5 µM [inhibitor, single point]
CC1CCN(C(=S)c2ccc([N+](=O)[O-])cc2)CC1 | inactive
Cc1cc(NC(=O)CCNS(=O)(=O)c2ccc3c(c2)oc(=O)n3C)ccc1Br | inconclusive: 7.08 µM [inhibitor, partial curve]
O=C(Nc1cccc(Cl)c1)c1ccc(F)c(S(=O)(=O)N2CCC3(CC2)OCCO3)c1 | inconclusive: 11.2 µM [inhibitor, partial curve]
O=C(Nc1ccc2oc(-c3ccncc3)nc2c1)c1ccc([N+](=O)[O-])o1 | active: 5.62 µM
CCCn1cnc2c(SCc3ccccn3)nc(N)nc21 | inactive
O=C(NCCOc1ccccc1)c1cc(C(=O)NCCOc2ccccc2)cc([N+](=O)[O-])c1 | inconclusive: 35.5 µM [inhibitor, single point]
O=C(c1ccccc1)N1N=C(C(F)(F)F)CC1(O)c1ccccc1O (configuration not stated) | active: 8.91 µM
CCC(C)NC(=O)CSc1nc2n[nH]c(C)c2c(=N)n1-c1ccc(C)c(Cl)c1 (configuration not stated) | inconclusive: 10 µM [inhibitor, partial curve, poor fit]
O=C1CC(c2ccc(O)cc2)Oc2cc(O)ccc21 (configuration not stated) | inactive
COc1ccc(-c2cc(NC=O)c3ncc(-c4cccc(C(=O)NCCN(C)C)c4)n3c2)cn1 | inactive
Cc1ccc2c(CC(=O)NCCc3ccc(S(N)(=O)=O)cc3)coc2c1 | inconclusive: 3.55 µM [inhibitor, full curve, poor fit]
CC(C)n1c(CSCc2ccc(Cl)cc2Cl)n[nH]c1=S | inconclusive: 15.8 µM [inhibitor, single point]
Cc1c(Cl)cccc1NC(=O)CCN1C(=O)c2ccccc2Sc2ncccc21 | inconclusive: 11.2 µM [inhibitor, partial curve, poor fit]
CCOC(=O)c1[nH]c2ccc(OC)cc2c1NC(=S)N1CCN(c2cccc(Cl)c2)CC1 | inconclusive: 35.5 µM [inhibitor, single point]
Cc1occc1-c1nnc(SCC(=O)Nc2nc(C(C)(C)C)cs2)o1 | inconclusive: 5.01 µM [inhibitor, partial curve, poor fit]
Cc1ccccc1Cn1cccc1/C=C1/C(=N)N2C=CSC2=NC1=O | inactive
CC(Sc1nc(NCc2ccccc2)nc(N(C)C)n1)C(=O)Nc1ccccc1 (configuration not stated) | inconclusive: 35.5 µM [inhibitor, single point]

SMILES | Potency
Cc1nn(-c2cccc(Cl)c2)c2nc(C(F)(F)F)[nH]c(=O)c12 | active: 11.2 µM
Cc1ccccc1NC(=O)CSc1ccncc1 | inactive
O=C(O)CSc1cc(NS(=O)(=O)c2ccc(Cl)cc2)c2ccccc2c1O | inconclusive: 1.26 µM [inhibitor, partial curve, poor fit]
O=C1C2=C(NC(=S)NC2c2ccc(Cl)cc2)NC(c2ccc(Cl)cc2)N1c1ccc(Cl)cc1 (configuration not stated) | inconclusive: 20 µM [inhibitor, single point]
Cc1cccc(C2=NN(c3ccc(Br)cc3)[C@@H](C(=O)N3CCOC3=O)[C@@H]2c2ccc(Cl)cc2)c1 | inconclusive: 15.8 µM [inhibitor, partial curve, poor fit]
CCN(Cc1ccc2c(c1)OCO2)C(=O)CSc1nc(C)nc2sc(C)c(C)c12 | inactive
CCCCCCCNC(=O)C1(CC2CC(c3ccccc3)=NO2)CCNCC1 (configuration not stated) | inconclusive: 35.5 µM [inhibitor, single point]
Cc1ccccc1CSCC(Nc1ccc(C(=O)O)cc1[N+](=O)[O-])C(=O)O (configuration not stated) | inconclusive: 0.112 µM [inhibitor, full curve, poor fit]
Nc1nc(SCc2ccccc2)cc(SCc2ccccc2)n1 | inconclusive: 35.5 µM [inhibitor, single point]
Cc1ccc2[nH]c(=O)c(COC(=O)c3ccccn3)cc2c1 | inconclusive: 5.62 µM [inhibitor, single point]
O=C(CN1CCCN(S(=O)(=O)c2ccc(Br)s2)CC1)Nc1ccc(Cl)cc1 | inactive
O=C(/C=C/[C@H]1O[C@@H](n2ccc(=O)[nH]c2=O)[C@H](O)[C@@H]1O)NCCCc1ccccc1 | inconclusive: 35.5 µM [inhibitor, single point]
O=C(CNC(=O)c1ccccc1)NCCc1nc2ccccc2[nH]1 | inconclusive: 35.5 µM [inhibitor, single point]
O=C(CCn1c(=O)oc2ccccc21)Nc1cccc([N+](=O)[O-])c1 | inconclusive: 0.0891 µM [inhibitor, full curve, poor fit]
CC(=O)O[C@H]1C(=O)[C@@]2(C)[C@H]([C@H](OC(=O)c3ccccc3)[C@]3(O)C[C@H](OC(=O)[C@H](O)C(NC(=O)c4ccccc4)c4ccccc4)C(C)=C1C3(C)C)[C@]1(OC(C)=O)CO[C@@H]1C[C@@H]2O (some centres not stated) | inconclusive: 22.4 µM [inhibitor, single point]
CCc1ccc(N2CC(C(=O)Nc3cccnc3)CC2=O)cc1 (configuration not stated) | inconclusive: 6.31 µM [inhibitor, single point]
COc1ccccc1C(=O)N1CCN=C1SC | inactive
S=c1[nH]nc(CSCCOc2ccccc2)o1 | inactive
COc1ccc(CCNC(=O)c2ccc3c(c2)N(Cc2ccc(F)cc2)CCS3)cc1OC | inconclusive: 1 µM [inhibitor, full curve, poor fit]
COc1ccccc1N1CCN(C(=O)c2cc(-c3ccccc3O)on2)CC1 | inactive
N#Cc1cccc(NC(=O)c2cc3c(s2)-c2ccc(Cl)cc2SC3)c1 | inconclusive: 6.31 µM [inhibitor, full curve]
O=C(c1ccncc1)N(Cc1ccco1)Cc1cc2ccccc2[nH]c1=O | inconclusive: 5.01 µM [inhibitor, partial curve, poor fit]
Nc1nc(-c2ccccc2)nc2sc3c(c12)CCCC3 | inconclusive: 20 µM [inhibitor, single point]

SMILES | Potency
CCOC(=O)c1c(NC(=S)N2CCN(C)CC2)sc(C)c1-c1ccccc1 | inconclusive: 20 µM [inhibitor, single point]
CCOc1ccc(C(=O)N(Cc2ccc(OC)cc2)Cc2cc3cc(OC)ccc3[nH]c2=O)cc1 | inactive
CS(=O)(=O)N(CC(=O)NCc1ccco1)c1ccc(Cl)c(C(F)(F)F)c1 | inconclusive: 0.794 µM [inhibitor, full curve, poor fit]
COc1ccc(C2=C(Nc3ccc(C)c(C)c3)c3ccccc3C2=O)cc1 | inactive
Cc1ccn2c(=O)c(C(=O)NC(C)c3ccccc3)c(O)nc2c1 (configuration not stated) | inactive
O=C(CC1C(=O)NCCN1CC1CCCCC1)NCc1cc(F)ccc1F (configuration not stated) | inconclusive: 6.31 µM [inhibitor, single point]
CCOc1ccccc1CNC(=O)c1cccn1-c1nnc(N2CCCCC2)s1 | inconclusive: 12.6 µM [inhibitor, single point]
CCN1C(=O)C(c2ccc(O)cc2)(c2ccc(O)cc2)c2ccccc21 | inactive
Cc1ccc(S(=O)(=O)N(CC(=O)O)Cc2ccccc2)cc1 | inactive
Oc1c(C(c2ccccc2)N2CCCCC2)sc2ncnn12 (configuration not stated) | inactive
CC1O[C@@H](O[C@H](C)CC[C@@H](C)O)C(O)C[C@H]1O (some centres not stated) | inactive
O=C(Cn1c(=O)c2cccn2c2ccc(F)cc21)N1CCN(c2ccc(F)cc2)CC1 | inconclusive: 5.62 µM [inhibitor, single point]
O=C(Nc1cccc(OC(F)(F)F)c1)C1Cc2c(-c3ccc(Cl)cc3)ccnc2O1 (configuration not stated) | inconclusive: 35.5 µM [inhibitor, single point]
CC(C)c1ccc(Nc2nnc(SCC(=O)NCC3CCCO3)s2)cc1 (configuration not stated) | inconclusive: 15.8 µM [inhibitor, single point]
CCOc1ccc(N(C)C(CNS(=O)(=O)c2ccccc2)c2ccccc2)cc1 (configuration not stated) | inconclusive: 31.6 µM [inhibitor, single point]
Cc1ccc(C(NC(=O)C2CCN(CCOc3ccc(Cl)cc3Cl)CC2)c2ccccn2)cc1 (configuration not stated) | inconclusive: 35.5 µM [inhibitor, single point]
CC(C)CCn1c(=O)c2sccc2n2c(CCCC(=O)NCc3ccc(F)cc3)nnc12 | inconclusive: 8.91 µM [inhibitor, partial curve]
COc1cccc(N2CCN(C(=O)c3ccc(CS(=O)c4ccc(Cl)cc4)o3)CC2)c1 (configuration not stated) | inconclusive: 17.8 µM [inhibitor, single point]
Cc1c(Cc2ccccc2)c(=O)n2c([nH]c3ccccc32)c1C#N | inconclusive: 15.8 µM [inhibitor, single point]
OC(COCc1ccco1)CN1CCN(c2ccccc2)CC1 (configuration not stated) | inconclusive: 35.5 µM [inhibitor, single point]
O=c1c(N=Nc2ccccc2)c[nH]n1-c1ccccc1 | inactive
